Results: the supplement of paper PMC3334620
The full ranking holds about 33,000 sequences; the median of “E-score (-0.5 to 0.5)” is about -0.04, and the highest 2% start at about 0.36. Some of the results follow.

Biological target: T1, Hmlalpha2 (UniProt P0CY09)
T1 sequence: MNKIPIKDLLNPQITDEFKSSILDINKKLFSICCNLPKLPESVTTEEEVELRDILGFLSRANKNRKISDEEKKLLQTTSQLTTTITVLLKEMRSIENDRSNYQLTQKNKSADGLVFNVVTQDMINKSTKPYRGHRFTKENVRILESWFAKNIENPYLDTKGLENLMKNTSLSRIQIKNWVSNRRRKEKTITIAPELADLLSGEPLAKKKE
Assay: PBM E-score (8-mer binding enrichment) (E-score (-0.5 to 0.5)); higher = stronger / more preferred TF binding; most listed sequences are background and not binding sites
Conditions: protein concentration: 200 nM; construct: GST-full length
Procedure: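 Universal 'all 10-mer' protein binding microarrays (Agilent AMADID 015681) probed with GST-tagged S. cerevisiae TFs (full-length or DBD) made by in vitro transcription/translation (PURExpress), about 100-200 nM. Bound TF was detected with fluorescent anti-GST. Each ungapped 8-mer (which stands for itself and its reverse complement) is scored by the PBM enrichment score (E-score), a modified Wilcoxon-Mann-Whitney statistic from -0.5 to +0.5, computed with the Universal PBM Analysis Suite. Scale: above 0.35 generally sequence-specific binding.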

In order of falling “PBM E-score” value:
1. AATGTAAA  0.434
2. GTGTACAC  0.415
3. ACACGCTA  0.414
4. ACGTGTAT  0.402
5. GGTTACAC  0.314
6. GTGTACCA  0.3
7. ACAAATGT  0.287
8. AGTTAAAC  0.286
9. TACGCAGA  0.265
10. ATACGCAT  0.251
11. CAACGTGG  0.249
12. ACAACGTA  0.246
13. ACCACATG  0.241
14. AACGCGCC  0.24
15. AACAAGAT  0.24
16. TAGTATAA  0.232
17. AAATCAAT  0.22
18. CTCGCGTA  0.22
19. CACGCATG  0.219
20. GTCTGTAA  0.217
21. ATATCAAT  0.206
22. AATAATAC  0.205
23. AAGACTTA  0.202
24. GTGGTTAA  0.198
25. ACCATTAC  0.198
26. ACCTACAA  0.186
27. GCGATACA  0.186
28. CGCTAAGC  0.184
29. CGAAGTAA  0.176
30. GTTAAGCA  0.172
31. CAATGTAG  0.172
32. TACAGGCA  0.167
33. GATCACAC  0.164
34. AACCAAGT  0.163
35. CCAACGTA  0.16
36. ATTCACTA  0.16
37. CAACCGCG  0.157
38. ATTTGACG  0.149
39. CGTCGTGC  0.148
40. ACAGTTCA  0.146
41. AACCGAAA  0.145
42. CATTGTCA  0.139
43. ATACTAGA  0.124
44. ATACGGCA  0.103
45. ACCTAGTA  0.0968
46. AGATCGTG  0.0948
47. TGAAACAA  0.0941
48. ACAGGTAC  0.0935
49. CCGGAATA  0.0894
50. TGCCTACA  0.0851
51. AGGTATAA  0.0833
52. CAGAATTA  0.0802
53. AAGATAAG  0.0797
54. AAATAGTT  0.0796
55. AACACTAG  0.0745
56. CGCGGGTA  0.0735
57. ATCAAATG  0.0673
58. GCCATACA  0.0644
59. TATATCGA  0.0637
60. CAAACATC  0.0613
61. TTCCAAAA  0.0576
62. CTAACGAC  0.0559
63. CGTAAGAC  0.053
64. AAGTGTCG  0.0503
65. TAAATGAA  0.0494
66. GACGTAGA  0.0476
67. AGCTAGAT  0.0426
68. ACACTCGC  0.0406
69. CGTGATAC  0.0362
70. CGAAAGCA  0.0341
71. AGATCATG  0.0318
72. TACCGGTA  0.0309
73. ATCAGATG  0.0265
74. AGTCATTA  0.0219
75. ACTAATCG  0.0216
76. ATAGGAGA  0.0214
77. TTCTGCAA  0.0201
78. AGAATGCA  0.0161
79. ACAGAGAC  0.0124
80. AAAGTCAA  0.00731
81. CATACCGA  0.00368
82. GGCCTTAA  0.00254
83. CACGGCGG  0.00128
84. CTGAAAAA  -0.00046
85. TAGGTTCA  -0.00058
86. ATGAGTTA  -0.0116
87. GCAGGCAA  -0.0121
88. AGACGATA  -0.0129
89. CGCGCTAG  -0.0147
90. AATCATCT  -0.0172
91. GCGACTTA  -0.0185
92. AAGTGCAC  -0.0185
93. CCGCGCTA  -0.0189
94. AGTAGGAT  -0.0191
95. ATGAGAGA  -0.0203
96. ACACCGCC  -0.0211
97. TACTTCCA  -0.0223
98. GAACGATC  -0.0263
99. GCAGACAC  -0.0269
100. AATTGCAT  -0.0272
101. GTTAGCTA  -0.0298
102. GCTGTCAC  -0.03
103. CCGGAACA  -0.0334
104. CGGTGGTA  -0.0335
105. CTATACGA  -0.0339
106. AGCTGCAT  -0.0342
107. CTAGATAA  -0.0347
108. AATGCGGA  -0.035
109. CGATAAAG  -0.0396
110. CTATCTAA  -0.0399
111. AACCATGC  -0.0458
112. CTCGACTC  -0.0461
113. ATGGTAAG  -0.0494
114. CGTCGGTC  -0.0542
115. GAGCACGA  -0.058
116. CCAACCCC  -0.0591
117. AGGGTTAC  -0.0596
118. TCACTGGA  -0.0631
119. GGACAACC  -0.066
120. CATATCGC  -0.0679
121. ATCCACAC  -0.0685
122. AAGCAGGA  -0.0686
123. CGATGCAC  -0.073
124. GCAACTCC  -0.0764
125. GCTCTGAC  -0.0767
126. AATGCGGC  -0.0778
127. TATCAGGA  -0.0805
128. AGACCTGC  -0.0816
129. GAACCCAA  -0.0846
130. ACATCTGA  -0.0848
131. CACCCTAA  -0.0851
132. AAATTTCC  -0.0851
133. ACCTATCA  -0.0857
134. ACTGTGCC  -0.0891
135. AAACCACG  -0.0899
136. CACCTACG  -0.0917
137. ACTTAGGC  -0.0936
138. GACATCCA  -0.0937
139. AGGGTTTC  -0.0942
140. AACCTCCG  -0.0959
141. GCGCTCAA  -0.0978
142. GAAATTGC  -0.102
143. GACTTCTC  -0.106
144. AGTCATGA  -0.108
145. CGGCATGC  -0.111
146. GTAGGTCA  -0.111
147. TGCACCCA  -0.121
148. TCTGCCAA  -0.124
149. ATCCATGC  -0.126
150. CCCATTGC  -0.128
151. CAGCAAGG  -0.129
152. ATATGCTC  -0.131
153. CTACCCGC  -0.139
154. AGAACGGG  -0.139
155. CACTCTAG  -0.14
156. GGGCTGTA  -0.141
157. CTGAGTCA  -0.142
158. GGATCTCA  -0.142
159. ACGCCGGG  -0.144
160. GTTCCATA  -0.146
161. ACGGCCAG  -0.149
162. ATGTGACC  -0.15
163. GAGTTGGA  -0.151
164. AGGACTGA  -0.154
165. ACCTGCAC  -0.158
166. CTGCCAAC  -0.167
167. GGTTTAGA  -0.168
168. CCCGAGAC  -0.172
169. GGCCCAAC  -0.173
170. CCCCTTGA  -0.173
171. GAAATTCC  -0.175
172. GGCCGTAA  -0.179
173. ATCCTCTG  -0.179
174. AGTCTGCC  -0.184
175. ATAGGGTC  -0.185
176. AGGTAGAC  -0.186
177. GAGGAAGA  -0.187
178. ACCCAGCT  -0.187
179. GCGGGGAC  -0.189
180. CTCCGTAC  -0.191
181. GCCAATCA  -0.192
182. GCGTCCCA  -0.195
183. CGAGGCCC  -0.196
184. AACGACTG  -0.204
185. AAGATCCG  -0.207
186. GGTCCCAA  -0.209
187. CAGTGGCA  -0.209
188. GTATGGGA  -0.211
189. CATTCTGA  -0.213
190. GATGTGGC  -0.213
191. GGATGGAC  -0.22
192. CCTTATTC  -0.221
193. AGTCCAGG  -0.223
194. AAAGCCCT  -0.223
195. GATGATCA  -0.233
196. GCGGACGC  -0.234
197. AGCCAGAG  -0.243
198. CCTGGTCA  -0.247
199. CCATATGG  -0.251
200. AGGTCACC  -0.252
201. GAGGCAGC  -0.254
202. GGGGGAAC  -0.26
203. ATCTGGGG  -0.267
204. CCTCCCTC  -0.267
205. CCTGTCTC  -0.282
206. ATGGCCCC  -0.283
207. AGGGATGA  -0.29
208. CCAGGACC  -0.29
209. CGGTTCCA  -0.3
210. CCCGGAGG  -0.314
211. CCCTGAGA  -0.329
212. AAGGCCCA  -0.33
213. ACTAGGGG  -0.345
214. ACCCCGTC  -0.348
215. CGGCCCCG  -0.355
216. CCTCCCGA  -0.357
217. CGACTGGA  -0.372
218. CCCCCAGC  -0.388
219. GAGCGGAC  -0.405
